Data from the supplement of paper PMC11383711.
Some of the results follow. Binding of human antibodies (heavy:light variable regions, tested as scFv in one mRNA-display pool) to influenza hemagglutinin, with or without the stem antibody CR9114 bound first. Score = (mean enrichment − median) / interquartile range of that screen; higher = more enriched, 0 = typical non-binder. Active = above the paper's cut-off per screen: stems 28; unblocked H1 Solomon Islands 5, H1 Michigan 3, H3 5, H5 19, H7 2.85, both B 5; blocked 9, 7, H5 10, H7 10, B Phuket 10, B Lee 11.5. Scores are scaled within each screen and are no affinities; replicates correlate at about 0.6 to 0.9, and antibodies rare in the pool are noisier.

Tests used:
Test in all cases: mRNA display binding score; higher = more enriched on the antigen
[1] = molecular target: Influenza A H1N1 A/Michigan/45/2015 hemagglutinin ectodomain
Procedure: (§1)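 A pool of natively paired antibodies, displayed as scFv on mRNA, was selected once on antigen-coated beads and sequenced before and after; two replicates.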

[2] = molecular target: Influenza A H1N1 A/Solomon Islands/3/2006 hemagglutinin ectodomain
Procedure: as §1

[3] = molecular target: Influenza A H3N2 A/Singapore/INFIMH-16-0019/2016 hemagglutinin ectodomain; settings: antigen blocked with: nothing
Procedure: as §1

[4] = molecular target: Influenza A H5N1 A/Qinghai/1A/2005 hemagglutinin ectodomain
Procedure: as §1

[5] = molecular target: Influenza A H7N9 A/Shanghai/2/2013 hemagglutinin ectodomain
Procedure: as §1

[6] = molecular target: Influenza B/Lee/1940 hemagglutinin ectodomain
Procedure: as §1

[7] = molecular target: Influenza B/Phuket/3073/2013 hemagglutinin ectodomain
Procedure: as §1

[8] = antigen blocked with: 2 µM CR9114 IgG

Measured: mRNA display binding score

B1: AG12-C06 (protein)
chain 1: VQLQESGPGMVRPSQTLSLFCTVSGDSIGSGTDYWNWVRQPPGKGLEWVGDIPDRGNPNYNPSLRSRLSISRDTSKNRISLTLTSVTAADTAVYYCARASGTRVATITDYYGMDVWGQGTTVTVSS
chain 2: DIQMTQSPSSLSASVGDRVTITCRASQAITNHLNWYQSKPGKAPKFLISAASTLQNGVPSRFSGSGSGTDYSLTITNLQPDDFATYYCQQSHSNPITFGQGTRLEIK
inactive: [1]; [8] -0.577 | [1]; antigen blocked with: nothing -0.178 | [2]; [8] -0.47 | [2]; antigen blocked with: nothing -0.691 | [3] -0.483 | [4]; [8] -0.671 | [4]; antigen blocked with: nothing -0.478 | [5]; [8] -1.1 | [5]; antigen blocked with: nothing -0.568 | [6]; [8] -0.539 | [6]; antigen blocked with: nothing -0.403 | [7]; [8] -0.628 | [7]; antigen blocked with: nothing -0.418

B2: AG7-3B02 (protein)
chain 1: VQLVESGGVVVQPGGSLRLSCAASGFTFDDCAMHWVRQAPGKGLEWVSLITWDGGSTYYADSVKGRFTISRDNNKNSLYLQMNSLRAEDTALYYCAKDMSSGYYSIFDSWGQGTLVTVSS
chain 2: EIVMTQSPATLSVSPGERATLSCRASQTISGNLAWYQQKPGQAPRLLIYYASARATGIPARFSGSGSGTEFTLTISSLQSEDFALYYCQHYNNWPPQFGPGTKVDIK
inactive: [1]; [8] -0.168 | [1]; antigen blocked with: nothing 0.465 | [2]; [8] -0.503 | [2]; antigen blocked with: nothing 0.599 | [3] 2.31 | [4]; [8] -0.102 | [4]; antigen blocked with: nothing 0.138 | [5]; [8] -0.974 | [5]; antigen blocked with: nothing -0.096 | [6]; [8] 0.057 | [6]; antigen blocked with: nothing -0.105 | [7]; [8] 0.539 | [7]; antigen blocked with: nothing 0.232

B3: K77-2G05 (protein)
chain 1: QVQLQESGPGRVKPSETLSLTCTVSGGSVSSDSFYWSWIRQPPGRGLEWIGYISKSGSTNYTPSLKSRVTVSIETSKNQISLNLSSVTAADTAVYYCARAFRGYCITTDCYIFDYWGQGTLVTVSS
chain 2: DIVMTQSPDSLAVSLGERATINCKSNRSILFSSNNKNYLAWYQQKPGQPPKLLIYWASTRESGVPDRFSGSGSGTDFTLTISRLQAEDVAVYYCQQYYGTPLTFGGGTKVEIK
inactive: [1]; [8] -0.206 | [1]; antigen blocked with: nothing 1.54 | [2]; [8] 0.341 | [2]; antigen blocked with: nothing 0.0952 | [3] -0.443 | [4]; [8] 1.19 | [4]; antigen blocked with: nothing 0.172 | [5]; [8] -0.478 | [5]; antigen blocked with: nothing 1.07 | [6]; [8] 1.39 | [6]; antigen blocked with: nothing -0.0821 | [7]; [8] 1.12 | [7]; antigen blocked with: nothing 1.18

B4: R95-2C10 (protein)
chain 1: EVQLVESGGVAVKPGGSLRLSCAASGFTFDDYVMHWVRQVPGKGLEWVSLISWDGGSRYYADSVKGRFTISRDNSKNSLYLQMNNLRPEDTALYYCVKDRESGNYYHFYYMDAWGKGTTVTVS
chain 2: QSVLTQPPSVSAAPGQKVTISCSGSSSNIGNNHVSWFQQLPGTAPKLLIYDNDKRPSGIPDRFSGSKSGTSATLGITGLQTGDEADYYCETWDSSLSGGGVVFGGGTRLTVI
inactive: [1]; [8] -0.57 | [1]; antigen blocked with: nothing -0.937 | [2]; [8] -0.595 | [2]; antigen blocked with: nothing -0.528 | [3] 0.706 | [4]; [8] -1.11 | [4]; antigen blocked with: nothing -0.659 | [5]; [8] -0.908 | [5]; antigen blocked with: nothing -0.698 | [6]; [8] -0.141 | [6]; antigen blocked with: nothing -0.359 | [7]; [8] -0.361 | [7]; antigen blocked with: nothing -0.375

B5: antibody 3E05 (protein)
chain 1: VQLVQSGAEVKKPGASVKVSCKASGYTFTTYDIHWVRQAPGQGLEWMGWLNPNSGYTVYAQKFQGRLTMTRNTSIRIAYLELSSLRSEDTAVYYCARDDGYCTSNNCYSRGMDVWGQGTTVTVSS
chain 2: EIVLTQSPGTLSLSPGERATLSCRASQNFSSNYLAWYQQKPGQAPRLLIYGASSRATGIPDRFSGSGSGTDFTLTISRLEPEDFAVYYCHQYGRSFGQGTKVEIK
inactive: [1]; [8] -0.498 | [1]; antigen blocked with: nothing -0.364 | [2]; [8] -0.786 | [2]; antigen blocked with: nothing 1.17 | [3] -0.333 | [4]; [8] -0.246 | [4]; antigen blocked with: nothing -0.479 | [5]; [8] -0.166 | [5]; antigen blocked with: nothing -0.127 | [6]; [8] 1.32 | [6]; antigen blocked with: nothing 1.79 | [7]; [8] -0.674 | [7]; antigen blocked with: nothing -0.158

B6: W85-3F01 (protein)
chain 1: EVQLVESGGDLVQPGRSLRLSCEASGFTFSSYEMSWVRQPPGKGLEWVSYISSSGATFYYADAVKGRFTISRDNAKNSLYLQMNSLRAEDTAVYYCASLITGYNSYWYWVDHLDSWGHGTLVTVSS
chain 2: DIVMTQSPLSLPVTPGEPASISCRSSQSLLHSNGYNYLDWYLQKPGQSPQLLIYLGSIRASGVPDRFNGSGSGTDFTLKIIRVEAEDVGVYYCMQALQTAFTFGPGTKVDIK
inactive: [1]; [8] 1.25 | [1]; antigen blocked with: nothing 1.79 | [2]; [8] 0.609 | [2]; antigen blocked with: nothing 2.69 | [3] 0.56 | [4]; [8] 4.51 | [4]; antigen blocked with: nothing 1.03 | [5]; [8] 4.45 | [5]; antigen blocked with: nothing 2.07 | [6]; [8] 0.731 | [6]; antigen blocked with: nothing 2.7 | [7]; [8] 2.31 | [7]; antigen blocked with: nothing 2.24
